Experimental data from the RNAGym collection of RNA variant scans (doi:10.1093/nar/gkz1192).
Read counts are not given, so values of variants with three or more changes are uncertain.

B1: CPEB3 Ribozyme (parent)
chain: UAACAGGGGGCCACAGCAGAAGCGUUCACGUCGCAGCCCCUGUCAGAUUCUGGUGAAUCUGCGAAUUCUGCUGUAUAUCUC

Variants of: B1
Experiment: self-cleavage, relative activity (ratio to wild type); higher = more cleavage; in vitro, sequencing
Method in brief: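 Relative activity compares each variant's cleaved/total read fraction with that of the unmutated ribozyme. To get these fractions, barcoded CPEB3 ribozyme libraries from rounds of error-prone PCR were transcribed with T7 RNA polymerase for 5 hours at 37°C and then given 15 min of DNase I treatment before EDTA was added. The RNAs were reverse transcribed with template switching and sequenced on Illumina, and DNA sequencing linked barcodes to variants. A minimum of 5 reads applied, and three batches were averaged.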

Variant	self-cleavage
A47U U51C G52C G55U	0.18
A47U U51C U60C U76C	0
A47U U54A A64G	0.27
A47U U54A U69G U80C	0.22
A47U U54C U69A	0.19
A47U U54C U74C	0.91
A47U U58A A65C U80C C81U	0.11
A47U U58A A65G	0.51
A47U U60C U66C	0
A47U U67A A77U	0.28
U48A A56G U60A C62G U80C	0.07
U48A A57C U72A	0.39
U48A A57G U58A	0.17
U48A A57G U67C U74A	0.14
U48A A64G U80C	0.26
U48A A64U U69A	0.06
U48A A65G A77U	0.1
U48A C50A U69G U74A U80A	0.07
U48A C59U U66C	0.16
U48A C59U U78A U80C	0.1
U48A C62U U74C	0.22
U48A G52U A56G U60C A75G C81U	0.36
U48A G55A U60C U74C	0.11
U48A G70A U72C	0.19

Variant	self-cleavage
U48A U49C A56U U72C	0.52
U48A U49C A65G	0.08
U48A U51A G63U A65G U76A	0.17
U48A U54C C59U U66C	0.05
U48A U54C U60A A65C	0.1
U48A U54G U72A U80G	0.39
U48A U58A U80C	0.27
U48A U60A U67C U80G	0.1
U48A U60A U74C	0.33
U48A U60C A64G	0.12
U48A U66C U67A	0.11
U48A U67A A75G	0.17
U48C A56C A64G	0.14
U48C A56G A57U	0.32
U48C A56G C62U	0.14
U48C A56G U67A U80C	0.16
U48C A56G U67G	0.2
U48C A56G U76A	0.39
U48C A56G U76C U80A	0.59
U48C A56U A64G A65G	0.06
U48C A56U A65G C68A	0.2
U48C A56U C62U	0.12
U48C A56U U58A U60A U74A	0.15
U48C A56U U58C C59G	0.14

Variant	self-cleavage
U48C A56U U69A	0.27
U48C A56U U80C	0.52
U48C A57G A65G U76A	0.53
U48C A57G A77G	1.21
U48C A57G U60C	0.92
U48C A57G U76C	1.19
U48C A57G U78C	1.11
U48C A64C U80C	0.19
U48C A64G U66C	0.32
U48C A64G U78A	0.14
U48C A64G U80C	0.42
U48C A64U U67C C68U U69C	0.18
U48C A64U U80C	0.17
U48C A65G U66C	0.21
U48C A65G U66C U78C	0.15
U48C A65G U69C	0.15
U48C A65G U76C	0.17
U48C A65U U66C	0.17
U48C A65U U78C	0.18
U48C C50U U72A	0.3
U48C C79U U80A	0.92
U48C G52A A57G A64G	1.12
U48C G52A U60C U67C A75U U78A	0.2
U48C G53A U78C	0.82

Variant	self-cleavage
U48C G53U U54A	0.76
U48C G55U U67C U76C	0.15
U48C G61C A64G U80A	0.24
U48C G61C U78C	0.12
U48C G63A A64U U69C U72G U76A	0.25
U48C G63A U69C	0.21
U48C U49A A57G	0.94
U48C U49A U51A	0.21
U48C U49A U51A A64U U67C	0.22
U48C U49A U51A U72C	0.54
U48C U49A U78C	0.25
U48C U49C A56G	0.38
U48C U49C A64G U78C	0.09
U48C U49C G53A U60A U66C U80C	0.1
U48C U49C U58C	0.1
U48C U49C U72A U78A	0.65
U48C U49G A64U	0.18
U48C U51A A56G	0.22
U48C U51A C62U U67C U74C U78C	0.17
U48C U51A U72A U80C	0.27
U48C U51A U80C	0.45
U48C U51C A64U U80C	0.23
U48C U51C U72A U74G	0.47
U48C U51C U74A	0.94

Variant	self-cleavage
U48C U51C U76C U80A	0.87
U48C U54A U67A A77G	0.26
U48C U54A U74C U80C	0.85
U48C U54C A56C U67C U76A U78C	0.06
U48C U54C A56U U66C U76A	0.08
U48C U54C U58C A64U A65G	0.42
U48C U54C U58C U74A	0.17
U48C U54C U60A U80C	0.38
U48C U54C U60G	0.13
U48C U54C U76C	0.44
U48C U54G A56G U74C	0.41
U48C U54G U69C	0.17
U48C U58A C59G U67A U76A	0.14
U48C U58A U72A	0.15
U48C U58C U66C	0.12
U48C U58C U78A	0.22
U48C U58C U78C	0.17
U48C U58G U78C	0.25
U48C U60A A64G	0.26
U48C U60C U72A	0.16
U48C U60C U78C	0.35
U48C U66C A77U	0.13
U48C U66C G70A	0.14
U48C U66C U74A	0.19

Variant	self-cleavage
U48C U67A U69A	0.36
U48C U67A U69C U72A A75U	0.14
U48C U67C C71A	0.27
U48C U67C U69A	0.32
U48C U69C U76G	0.39
U48C U78C C79U	0.77
U48G A64G U67C	0.32
U48G A65G U78C U80A	0.07
U48G U51C A57G A75U U80C	0.25
U49A A56G A57G C79U	0.26
U49A A56G U66C	0.29
U49A A56G U67C U72C U80C	0.16
U49A A56G U69C	0.17
U49A A56U U80A	1.06
U49A A57G A64U U69G	0.2
U49A A57G A65G U69A	0.23
U49A A57G A65G U78G	0.13
U49A A57G A65U	0.09
U49A A57G U69A	0.19
U49A A57G U69C A77G	0.16
U49A A64C U72C	0.17
U49A A64G C81U	0.63
U49A A64G U67A	0.14
U49A A64U U66C U80G	0.15

Variant	self-cleavage
U49A A64U U78C	0.16
U49A A65G U78C	0
U49A C68G U72C	0.29
U49A G52A A56U	1.09
U49A G52C U60A U72C	0.22
U49A G55C A77C	0.69
U49A U51A C71G	0.2
U49A U51A U54C C62G	0.19
U49A U51A U72C	0.51
U49A U51A U80A	0.45
U49A U51C A57U A64U	0.39
U49A U51C C62G	0.14
U49A U51C U76A	0.38
U49A U54A A57G A65G	0.1
U49A U54C U72A	0.22
U49A U54G C71G U78C	0.18
U49A U58A A65C	0.13
U49A U58A U60A U72C	0.15
U49A U58C A65G	0.24
U49A U60A A64G	0.2
U49A U60A U69C	0.15
U49A U60A U72C U80A	0.2
U49A U60C G61A	0.15
